The subject of one test is HSkMC. In words: cytotoxicity call (relative viability < 0.9). The conditions noted are these: 10 µM.
The next test concerns S. aureus RN4220. In words: growth inhibition call (relative growth <= 0.2). The settings on record: 50 µM.

The list shows a part of the results.

For the compound `C[C@@H]1CN([C@@H](C)CO)C(=O)c2cc(NC(=O)CCCN(C)C)ccc2O[C@@H]1CN(C)Cc1ccccc1`, in the test on HSkMC, the cytotoxicity call was “inactive”. The growth inhibition call in the test on S. aureus RN4220 was “inactive”.
For the compound `C[C@H]1CN([C@@H](C)CO)C(=O)c2cccc(NS(=O)(=O)c3ccc(F)cc3)c2O[C@H]1CN(C)S(C)(=O)=O`, in the test with HSkMC, the cytotoxicity call was “inactive”. The growth inhibition call with S. aureus RN4220 is “inactive”.
Take `C[C@@H]1CCCCO[C@@H](CN(C)C(=O)Nc2ccc(C(F)(F)F)cc2)[C@@H](C)CN([C@H](C)CO)C(=O)c2cc(NC(=O)c3ccncc3)ccc2O1`: the cytotoxicity call in the test with HSkMC was “inactive”. Besides, the growth inhibition call in the test with S. aureus RN4220 was “inactive”.
On to `O=C(C[C@H]1CC[C@H]2[C@@H](COC[C@H](O)CN2Cc2cc(F)ccc2F)O1)N[C@H]1CCN(Cc2ccccc2)C1`, for which the cytotoxicity call in the test with HSkMC is “inactive”. The growth inhibition call with S. aureus RN4220 was “inactive”.
Consider `CC1CN(c2c(F)c(N)c3c(=O)c(C(=O)O)cn(C4CC4)c3c2F)CC(C)N1` (configuration not stated), for which the cytotoxicity call with HSkMC was “inactive”. Besides, the growth inhibition call in the test on S. aureus RN4220 is “inactive”.
With `C=CC[C@H](Nc1ccccc1C)c1ccc(Cl)cc1`, in the test on HSkMC, the cytotoxicity call was “inactive”. Besides, the growth inhibition call with S. aureus RN4220 was “inactive”.
On to `C[C@H]1CN([C@@H](C)CO)C(=O)Cc2cc(NC(=O)Nc3ccc(F)cc3)ccc2O[C@@H]1CN(C)C(=O)Nc1ccc(C(F)(F)F)cc1`, for which, in the test on HSkMC, the cytotoxicity call is “inactive”. In the test on S. aureus RN4220, the growth inhibition call is “inactive”.
Consider `COc1cccc(S(=O)(=O)N2C[C@H](O)COC[C@H]3O[C@@H](CC(=O)NCCCN4CCOCC4)CC[C@@H]32)c1`, for which the cytotoxicity call in the test on HSkMC is “inactive”. Further, in the test on S. aureus RN4220, the growth inhibition call is “inactive”.
As to `C[C@@H]1CN([C@@H](C)CO)C(=O)Cc2cc(NS(C)(=O)=O)ccc2O[C@H]1CN(C)C(=O)NC1CCCCC1`, the cytotoxicity call in the test with HSkMC is “inactive”. Besides, the growth inhibition call in the test with S. aureus RN4220 was “inactive”.
For the compound `C[C@H](CO)N1C[C@H](C)[C@H](CN(C)S(=O)(=O)c2ccc(Cl)cc2)Oc2ccc(NC(=O)CCN3CCOCC3)cc2C1=O`, in the test with HSkMC, the cytotoxicity call was “inactive”. In addition, the growth inhibition call in the test on S. aureus RN4220 is “inactive”.
Consider `Cc1ccc(S(=O)(=O)N(C)C[C@@H]2OCCCC[C@@H](C)Oc3ccc(NC(=O)NC4CCCCC4)cc3C(=O)N([C@H](C)CO)C[C@H]2C)cc1`, for which, in the test on HSkMC, the cytotoxicity call was “inactive”. Also, the growth inhibition call in the test with S. aureus RN4220 was “inactive”.
Turning to `C[C@@H]1CN([C@H](C)CO)C(=O)c2cc(NC(=O)Nc3ccc(C(F)(F)F)cc3)ccc2O[C@@H]1CN(C)C(=O)Nc1ccc2c(c1)OCO2`, the cytotoxicity call in the test with HSkMC was “inactive”. Besides, the growth inhibition call in the test on S. aureus RN4220 is “inactive”.
As to `Cc1c(NC(C)C)c(=O)n(-c2ccccc2)n1C.Cl`, in the test with HSkMC, the cytotoxicity call was “inactive”. The growth inhibition call with S. aureus RN4220 is “inactive”.
With `Cc1ccc(S[C@]2(C(=O)NCc3ccccc3)CC(=O)N(Cc3ccccc3C(F)(F)F)[C@@H]2c2ccc(CO)cc2I)cc1`, the cytotoxicity call in the test with HSkMC was “inactive”. Also, the growth inhibition call with S. aureus RN4220 is “inactive”.
Take `COc1ccc(NC(=O)Nc2ccc3c(c2)C(=O)N([C@H](C)CO)C[C@@H](C)[C@@H](CN(C)S(C)(=O)=O)O3)cc1`: the cytotoxicity call in the test with HSkMC was “inactive”. Further, the growth inhibition call in the test on S. aureus RN4220 is “inactive”.
For `COc1ccc(S(=O)(=O)N(C)C[C@H]2Oc3c(cccc3N(C)C)C(=O)N([C@@H](C)CO)C[C@H]2C)cc1`, the cytotoxicity call in the test on HSkMC was “inactive”. Further, the growth inhibition call with S. aureus RN4220 is “inactive”.
Consider `C/C=C/c1cnc2c(c1)C(=O)N([C@@H](C)CO)C[C@H](C)[C@@H](CN(C)S(=O)(=O)c1ccc(OC)cc1)O2`, for which the cytotoxicity call with HSkMC is “inactive”. Also, the growth inhibition call in the test with S. aureus RN4220 was “inactive”.
As for `C[C@H]1CN([C@@H](C)CO)C(=O)c2cccc(NS(=O)(=O)c3ccc(F)cc3)c2O[C@@H]1CN(C)Cc1ccncc1`, the cytotoxicity call in the test with HSkMC is “inactive”. Besides, the growth inhibition call in the test on S. aureus RN4220 was “inactive”.
As to `C[C@@H]1CCCCO[C@H](CN(C)C(=O)Cc2ccccc2)[C@@H](C)CN([C@H](C)CO)C(=O)c2cc(NC(=O)Nc3ccc4c(c3)OCO4)ccc2O1`, the cytotoxicity call with HSkMC was “inactive”. Also, in the test with S. aureus RN4220, the growth inhibition call is “inactive”.
For the compound `CN1C(=O)c2cc(NC(=O)C3CCCC3)ccc2OC[C@H]2O[C@H](CC(=O)NCCc3ccncc3)CC[C@@H]21`, the cytotoxicity call in the test with HSkMC was “inactive”. Further, the growth inhibition call with S. aureus RN4220 was “inactive”.
On to `C[C@@H]1CN([C@@H](C)CO)C(=O)c2cccc(NS(=O)(=O)c3cccs3)c2O[C@@H]1CN(C)Cc1ccc(Oc2ccccc2)cc1`, for which the cytotoxicity call with HSkMC was “inactive”. Also, in the test with S. aureus RN4220, the growth inhibition call was “inactive”.
In the case of `C[C@@H]1CN([C@H](C)CO)C(=O)Cc2cc(NC(=O)Cc3ccccc3)ccc2O[C@H]1CN(C)Cc1ccc(C(F)(F)F)cc1`, in the test on HSkMC, the cytotoxicity call is “inactive”. Also, in the test on S. aureus RN4220, the growth inhibition call is “inactive”.
With `CC[C@H]1OC(=O)[C@H](C)[C@@H](O[C@H]2C[C@@](C)(OC)[C@@H](O)[C@H](C)O2)[C@H](C)[C@@H](O[C@@H]2O[C@H](C)C[C@H](N(C)C)[C@H]2O)[C@](C)(OC)C[C@@H](C)C(=O)[C@H](C)[C@@H](O)[C@]1(C)O`, in the test on HSkMC, the cytotoxicity call was “inactive”. Moreover, the growth inhibition call in the test on S. aureus RN4220 is “active”.
For `CCC1OC(=O)C(C)C(OC2CC(C)(OC)C(O)C(C)O2)C(C)C(OC2OC(C)CC(N(C)C)C2O)C(C)(O)CC(C)C(=O)C(C)C(O)C1(C)O` (configuration not stated), in that order: “inactive” and “active”.
On the same counts, the results for `Cc1noc(C)c1S(=O)(=O)N(C)C[C@H]1OCCCC[C@H](C)Oc2ccc(NC(=O)Nc3ccc(C(F)(F)F)cc3)cc2C(=O)N([C@H](C)CO)C[C@@H]1C` are “inactive” and “inactive”.
On to `O=C(CN1CCOCC1)NCC[C@H]1CC[C@@H](NC(=O)c2ccccc2F)[C@@H](CO)O1`, for which the cytotoxicity call in the test on HSkMC was “inactive”. Also, the growth inhibition call with S. aureus RN4220 is “inactive”.
For the compound `Cc1ccc(S(=O)(=O)Nc2cccc3c2O[C@H](CN(C)Cc2ccc(Oc4ccccc4)cc2)[C@@H](C)CN([C@H](C)CO)C3=O)cc1`, in the test on HSkMC, the cytotoxicity call is “inactive”. For the same compound, the growth inhibition call with S. aureus RN4220 is “inactive”.
For the compound `c1ccc2c(-c3cn[nH]c3)ccnc2c1`, the cytotoxicity call in the test on HSkMC is “inactive”. Further, in the test with S. aureus RN4220, the growth inhibition call is “inactive”.
Take `Cc1ccc(S(=O)(=O)Nc2ccc3c(c2)CC(=O)N([C@@H](C)CO)C[C@@H](C)[C@@H](CN(C)S(=O)(=O)c2cn(C)cn2)O3)cc1`: in the test on HSkMC, the cytotoxicity call is “inactive”. Besides, the growth inhibition call in the test with S. aureus RN4220 is “inactive”.
With `Cc1ccc(S(=O)(=O)Nc2cccc3c2O[C@H](CN(C)Cc2ccc(Cl)c(Cl)c2)[C@H](C)CN([C@H](C)CO)C3=O)cc1`, in the test with HSkMC, the cytotoxicity call is “inactive”. Besides, the growth inhibition call in the test with S. aureus RN4220 was “inactive”.
For `C[C@@H]1CN([C@H](C)CO)C(=O)c2cc(NC(=O)Nc3ccc4c(c3)OCO4)ccc2O[C@@H]1CN(C)S(C)(=O)=O`, in the test with HSkMC, the cytotoxicity call was “inactive”. For the same compound, in the test on S. aureus RN4220, the growth inhibition call was “inactive”.
As for `C[C@H]1CN([C@@H](C)CO)C(=O)c2cc(NC(=O)Nc3ccc(C(F)(F)F)cc3)ccc2O[C@H]1CN(C)S(=O)(=O)c1ccc(Cl)cc1`, in the test with HSkMC, the cytotoxicity call was “inactive”. For the same compound, in the test on S. aureus RN4220, the growth inhibition call is “inactive”.
For the compound `COc1ccc2c(c1)OC1c3ccc(OC)cc3OCC21` (configuration not stated), the cytotoxicity call in the test on HSkMC is “inactive”. Further, the growth inhibition call in the test on S. aureus RN4220 was “inactive”.
For `C[C@H](CO)N1C[C@H](C)[C@H](CN(C)Cc2ccc(Oc3ccccc3)cc2)Oc2ccc(NS(=O)(=O)c3ccccc3)cc2C1=O`, the cytotoxicity call in the test on HSkMC was “inactive”. The growth inhibition call in the test with S. aureus RN4220 was “inactive”.
In the case of `Cc1ccc(S(=O)(=O)N(C)C[C@H]2Oc3ccc(NS(C)(=O)=O)cc3CC(=O)N([C@H](C)CO)C[C@@H]2C)cc1`, in the test on HSkMC (human skeletal muscle cells), the cytotoxicity call is “inactive”. In addition, the growth inhibition call with S. aureus RN4220 is “inactive”.
Consider `COc1ccc(CC2c3cc(OC)c(OC)cc3CC[N+]2(C)CCC(=O)OCCCCCOC(=O)CC[N+]2(C)CCc3cc(OC)c(OC)cc3C2Cc2ccc(OC)c(OC)c2)cc1OC.O=S(=O)([O-])c1ccccc1.O=S(=O)([O-])c1ccccc1` (configuration not stated), for which the cytotoxicity call with HSkMC was “inactive”. Besides, the growth inhibition call with S. aureus RN4220 is “inactive”.
